# Among all 310,000 compounds or so, about 2,200 (0.71%) showed an effect of 50% or more. Effects have a minus sign here. Some of the results follow.
# Molecular target: human ether-à-go-go-related gene (hERG) potassium channel (human, UniProt Q12809)
# Assay: primary screen, population patch clamp on CHO cells stably expressing hERG
# Chain of human ether-à-go-go-related gene (hERG) potassium channel (Q12809 whole entry, looked up): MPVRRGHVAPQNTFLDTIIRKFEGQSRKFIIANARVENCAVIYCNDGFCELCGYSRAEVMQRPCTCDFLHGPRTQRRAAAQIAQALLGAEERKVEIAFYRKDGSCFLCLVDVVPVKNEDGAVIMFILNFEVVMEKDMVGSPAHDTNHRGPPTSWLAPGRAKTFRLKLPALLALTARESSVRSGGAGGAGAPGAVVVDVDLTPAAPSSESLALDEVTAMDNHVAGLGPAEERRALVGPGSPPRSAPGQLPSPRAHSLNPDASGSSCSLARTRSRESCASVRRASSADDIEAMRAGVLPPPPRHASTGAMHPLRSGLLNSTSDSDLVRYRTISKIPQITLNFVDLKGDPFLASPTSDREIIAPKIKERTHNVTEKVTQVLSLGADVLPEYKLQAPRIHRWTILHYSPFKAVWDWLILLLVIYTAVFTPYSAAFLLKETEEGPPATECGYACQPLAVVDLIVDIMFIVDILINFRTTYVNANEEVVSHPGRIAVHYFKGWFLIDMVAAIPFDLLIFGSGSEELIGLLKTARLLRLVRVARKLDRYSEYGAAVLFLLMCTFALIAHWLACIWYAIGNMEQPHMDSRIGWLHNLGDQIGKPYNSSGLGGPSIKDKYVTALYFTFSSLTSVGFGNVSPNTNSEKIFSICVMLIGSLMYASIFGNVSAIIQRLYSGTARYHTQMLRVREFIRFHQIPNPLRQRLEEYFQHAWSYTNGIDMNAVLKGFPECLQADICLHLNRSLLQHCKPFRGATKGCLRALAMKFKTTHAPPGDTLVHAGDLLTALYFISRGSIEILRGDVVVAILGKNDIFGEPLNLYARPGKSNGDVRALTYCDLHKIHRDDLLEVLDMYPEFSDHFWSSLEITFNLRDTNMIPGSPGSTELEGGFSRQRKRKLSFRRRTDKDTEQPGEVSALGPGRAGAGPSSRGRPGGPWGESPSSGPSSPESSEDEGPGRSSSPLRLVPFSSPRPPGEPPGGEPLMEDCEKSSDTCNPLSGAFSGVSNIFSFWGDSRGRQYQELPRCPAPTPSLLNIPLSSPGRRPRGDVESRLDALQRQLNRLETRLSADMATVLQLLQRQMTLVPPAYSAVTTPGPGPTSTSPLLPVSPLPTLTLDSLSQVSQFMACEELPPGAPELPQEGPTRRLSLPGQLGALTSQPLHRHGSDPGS
row,SMILES,"hERG current change (%, negative = inhibition) at 1uM [%]"
1,CNC(=O)C1=C(C)Nc2nc3ccccc3n2C1c1ccc(F)cc1 (centres unmarked),7.95
2,CC(C)(C)c1ccc(C(=O)COC(=O)CN2C(=O)NC3(CCCC3)C2=O)cc1,10.7
3,NNC(=O)c1ccc(N2CCc3ccccc32)c([N+](=O)[O-])c1,2.04
4,N#C/C(=C\c1ccccc1)C(=O)NCc1ccc(F)cc1,13.4
5,O=C(O)c1cc(-c2ccccc2)on1,17.8
6,CC(/C=C/C1(O)C(C)CC(O)CC1(C)C)OC1OC(CO)C(O)C(O)C1O (centres unmarked),13.1
7,O=C(Nc1ccc(N2CCOCC2)cc1)C1CCCCN1S(=O)(=O)c1ccccc1 (centres unmarked),2.21
8,Cc1ccc(-c2nc3cc(N)ccc3o2)cc1,4.61
9,Cc1ccc(C(=O)NC2CCN(S(=O)(=O)c3ccc(C)cc3)CC2)cc1,9.94
10,O=C(COc1ccccc1)NC(=S)Nc1cccc([N+](=O)[O-])c1,13.1
11,COc1cccc(C(=O)NC2CCCc3c2cnn3-c2cc(C)cc(C)c2)c1 (centres unmarked),5.25
12,COc1ccc(N(C(=O)CNC(=O)c2ccco2)C(C(=O)NC2CCCCC2)c2cccnc2)cc1 (centres unmarked),9.77
13,Br.CCOc1ccc(C2=CS/C(=C(\C#N)c3nnc4n3CCCCC4)N2CC)cc1,-0.859
14,O=C(c1cccc(F)c1)N1CCCC(C(=O)N2CCCC2)C1 (centres unmarked),13.8
15,COc1ccccc1NC(=O)N1CCC(C(=O)c2ccc(Cl)cc2)CC1,-8.89
16,CCN(CC)CCn1c2c(c(SCC(=O)Nc3cc(C)on3)nc1=O)CCCC2,6.36
17,CCOC(=O)C1(Cc2ccccc2C(F)(F)F)CCN(C(=O)c2cc(C(C)=O)n[nH]2)CC1,-7.13
18,Cc1ccsc1CN(C)CC(=O)NCC(=O)Nc1ccc(F)cc1,1.27
19,Cc1cc(=O)oc2cc(OCC(=O)N3CCCc4ccccc43)ccc12,9.46

row,SMILES,"hERG current change (%, negative = inhibition) at 1uM [%]"
1,Nn1c(SCC(=O)Nc2nccs2)nnc1C1CC1,2.62
2,CN1C(=O)N(C)C(=O)C2(Cc3cc([N+](=O)[O-])ccc3N(C)C2c2ccccc2)C1=O (centres unmarked),1.8
3,Cc1ccc(NC(=O)COC(=O)[C@@H]2CCCN2C(=O)c2cccs2)cc1S(=O)(=O)N(C)C,-41.3
4,O=C(Nc1cccs1)Nc1ccccc1Br,12.5
5,CC(CN)(NS(=O)(=O)c1ccccc1)c1ccccc1 (centres unmarked),11.9
6,CC(=O)c1ccccc1OC(=O)CCN1C(=O)C2C3C=CC(C4CC34)C2C1=O (centres unmarked),11.3
7,O=C(c1ccc(C(F)(F)F)cc1)C1CCCN(Cc2cccn2-c2ncccn2)C1 (centres unmarked),-88
8,O=C(NCc1ccco1)c1ccc(Br)s1,-3.62
9,FC(F)(F)c1cnc(N2CCSCC2)c(Cl)c1,8.48
10,Cl.c1ccc(Cn2nnnc2C(c2cccs2)N2CCCCCC2)cc1 (centres unmarked),9.91
11,CNC(=O)c1ccc2snnc2c1,5.03
12,CC1CCc2nc(NC(=O)c3ccco3)sc2C1 (centres unmarked),1.29
13,COc1ccccc1S(=O)(=O)CC(O)COc1ccc(C#N)cc1 (centres unmarked),9.42
14,COc1ccc2cnn(-c3ccc(C)cc3)c(=O)c2c1OC,15
15,COc1cc([N+](=O)[O-])ccc1NC(=O)CCCOc1ccccc1,2.59
16,O=[N+]([O-])c1cccc(-c2cnc3ccccc3n2)c1,3.59
17,O=C(O)C1C2C=CC(C2)C1C(=O)NC1CCN(Cc2ccccc2)CC1 (centres unmarked),7.34
18,O=C(Nc1cccc(F)c1)Nc1ccc2c(c1)CCC2,10.8
19,CC(=O)N1C(=O)NC2=C(C(=O)CCC2)C1c1cccc([N+](=O)[O-])c1 (centres unmarked),20.6

row,SMILES,"hERG current change (%, negative = inhibition) at 1uM [%]"
1,CC(C)NC(=O)N1CCCN(c2nc3ccc(Cl)cc3s2)CC1,-5.36
2,O=C(CSc1ccc(Br)cc1)Nc1ccccc1Oc1ccccc1,8.88
3,CNC(=O)N(O)C1N(/N=C/c2c(F)cccc2Cl)C(=S)SC1(C)C (centres unmarked),15.7
4,Cc1ccc(C(=O)N/C(=C\c2ccc([N+](=O)[O-])cc2)C(=O)NCCc2ccccc2)cc1,-8.35
5,CC(C)NS(=O)(=O)c1ccc(NC(=O)Cc2cccs2)cc1,19.3
6,CC1CN(C(=O)c2ccc(OC3CCN(Cc4ccccn4)CC3)cc2)CCN1C (centres unmarked),5.61
7,COc1ccc(C(=O)N/C(=C\c2ccc3c(c2)OCO3)C(=O)NCCc2nc3ccccc3[nH]2)cc1,-0.285
8,COc1ccc(NC(=O)C2Cc3cc(S(=O)(=O)N4CCCCC4)ccc3N2C(C)=O)cc1Cl (centres unmarked),13.8
9,CC(C(=O)Nc1cccc(S(=O)(=O)N2CCOCC2)c1)N1CCN(C)CC1 (centres unmarked),-4.88
10,O=C(NCc1ccc2c(c1)OCO2)C(=O)NCC1OCCN1S(=O)(=O)c1ccc(Cl)cc1 (centres unmarked),4.08
11,O=C1N=c2ccccc2=C1c1c(O)n(-c2cccc(F)c2)[nH]c1=O,6.7
12,COCC(C)n1c(SCC(=O)NC(=O)Cc2ccccc2)nc2ccccc2c1=O (centres unmarked),10.7
13,CCC(C)NCCOc1cc(C)cc(C)c1C.O=C(O)C(=O)O (centres unmarked),7.99
14,COC(=O)c1cc(S(=O)(=O)N(C)Cc2ccco2)c[nH]1,8.26
15,C=CCNC(=O)c1sc(SC)cc1-c1ccc(Cl)cc1,-8.83
16,Cc1ccc(CC2SC(N)=NC2=O)cc1 (centres unmarked),11.6
17,CCOc1cc(C(c2c(O)nc(SC)[nH]c2=O)c2c(O)nc(SC)[nH]c2=O)ccc1O,16.4
18,O=C(COC(=O)c1ccc(F)cc1)Nc1cc(S(=O)(=O)N2CCOCC2)ccc1N1CCCC1,-4.33
